PubChem BioAssay AID686979 (National Center for Advancing Translational Sciences (NCATS), 2013)
“And” between values parts separate entries of the source, which are not always exact repeats. Equal entries are not always repeated. The campaign covered roughly 420,000 compounds. About 50,000 (12%) were called active. The inconclusive results got no clear call from the source; some entries with a clear call stand among them for comparison. The call rests on the fitted dose curve; in most records, active means well fitted inhibition curve with a large enough effect; inconclusive means small, poorly fitted or top-dose-only effect; inactive means flat fitted curve, though single readings scatter. Where the call is inconclusive, the potency comes from a doubtful curve fit.

Assay: qHTS for Inhibitors of human tyrosyl-DNA phosphodiesterase 1 (TDP1): qHTS in cells in presence of CPT; further: nearly all actives have a fitted effect of over 55% in size
Details: chicken DT40 Tdp1-/-;hTDP1 cells + 20 nM CPT, ATP luminescence, 48 h; activity change, negative = growth inhibition: at 46.2 µM (top of the series)
Method in brief: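 Cell growth measured by CellTiter-Glo luminescence after a minimum 48 h, 37 C compound exposure with 20 nM CPT in Tdp1-knockout DT40 cells stably expressing hTDP1, seeded 400/well; qHTS titration format.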
On the % scale 0 is the no-effect control and ±100 the full control effect; potency means the concentration at half of the fitted maximal effect; tags describe the fitted curve by direction and shape.

**Q.** With `CCN(c1ccc(OC)cc1)S(=O)(=O)c1nnc(NC(=O)c2ccccc2Cl)s1` as the compound, how does the Potency read?
**A.** Its Potency is inconclusive: 20.6 µM [inhibitor, single point] and inconclusive: 29.1 µM [inhibitor, single point].

**Q.** With `COc1ccc(O)cc1CN1CCN(c2ncc(Cc3ccccc3)cn2)CC1` as the compound, how does the Potency read?
**A.** Its Potency is active: 23.1 µM.

**Q.** Which Potency does the source give for `Cc1cc(=O)c2cc(Br)ccc2n1CC(=O)NCc1ccccc1` here?
**A.** Its Potency is inconclusive: 29.1 µM [inhibitor, single point].

**Q.** With `CC(=O)c1sc(NC(=O)CCNC(=O)c2ccco2)nc1-c1ccccc1` as the compound, how does the Potency read?
**A.** The Potency was inconclusive: 14.6 µM [inhibitor, partial curve].

**Q.** Which Potency does the source give for `COCCCNC(=O)CSc1c2c(nc3ccc(Cl)cc13)CCCC2` here?
**A.** Its Potency is inconclusive: 18.4 µM [inhibitor, single point] and inconclusive: 20.6 µM [inhibitor, partial curve].

**Q.** With `CC(=O)C1=C(C)NC(SCC(=O)c2cc(Cl)ccc2Cl)=C(C#N)C1c1ccco1` (stereo not drawn) as the compound, how does the Potency read?
**A.** The Potency was inconclusive: 29.1 µM [inhibitor, single point].

**Q.** Which Potency does the source give for `Cc1ccc(OCCn2cc(/C=C(\C#N)C(=O)NCC3CCCO3)c3ccccc32)cc1` (stereo not drawn) here?
**A.** The Potency was active: 13 µM.

**Q.** With `Cc1cc(C(=O)OCC(=O)N2CCc3ccccc32)ccc1[N+](=O)[O-]` as the compound, how does the “activity change, negative = growth inhibition” value read?
**A.** Its value is inactive: -12.1%.

**Q.** With `O=C(CSc1nnc2c3ccccc3c3ccccc3c2n1)Nc1ccccc1F` as the compound, how does the Potency read?
**A.** The Potency was inconclusive: 29.1 µM [inhibitor, single point].

**Q.** With `Cc1ccc(NC(=O)c2cccc3c2-c2ccccc2C3=O)cc1C` as the compound, how does the Potency read?
**A.** The Potency was inconclusive: 29.1 µM [inhibitor, single point].

**Q.** With `COc1cccc(NC(=O)CN(C)C(=O)c2cc(-c3ccccc3)nc3ccccc23)c1` as the compound, how does the Potency read?
**A.** The Potency was inconclusive: 29.1 µM [inhibitor, single point].

**Q.** With `CC(O)(c1cccc(F)c1)c1nc(/C=C/c2ccccc2)cs1` (stereo not drawn) as the compound, how does the Potency read?
**A.** Its Potency is active: 18.4 µM.

**Q.** For `CNC(=O)/C(C#N)=C/c1ccc(-c2ccc(OC)cc2[N+](=O)[O-])o1`, which Potency is on record?
**A.** The Potency was inconclusive: 23.1 µM [inhibitor, partial curve, poor fit].

**Q.** For `CCCCn1c(NCc2ccccc2O)nc2ccccc21`, which activity change, negative = growth inhibition is on record?
**A.** Its activity change, negative = growth inhibition is inconclusive: -32.3% [inhibitor].

**Q.** For `CCC(=O)N(Cc1cc2cc(OC)ccc2[nH]c1=O)c1ccc(C)cc1`, which Potency is on record?
**A.** The Potency was inconclusive: 25.9 µM [inhibitor, single point].

**Q.** For `COc1ccc(CNC(=O)c2ccc3c(c2)N(C)C(=O)CS3=O)cc1` (stereo not drawn), which Potency is on record?
**A.** Its Potency is inconclusive: 23.1 µM [inhibitor, single point].

**Q.** With `N#C/C(=C\c1cc([N+](=O)[O-])c(N2CCCCC2)cc1N1CCCCC1)c1nn(-c2ccccc2)c(N)c1C#N` as the compound, how does the Potency read?
**A.** The Potency was inconclusive: 25.9 µM [inhibitor, single point].

**Q.** Which Potency does the source give for `Cc1ccc(CNC(=O)c2ccc(CSCc3ccc(C)cc3)o2)cc1` here?
**A.** Its Potency is inconclusive: 18.4 µM [inhibitor, single point].

**Q.** With `Cc1cc2nc(-c3ccc(F)cc3)c(CC(C)(C)C)n2c(C)c1Br` as the compound, how does the Potency read?
**A.** Its Potency is active: 25.9 µM.

**Q.** For `Cc1ccc(OCC(=O)Nc2cccc3ccccc23)c([N+](=O)[O-])n1`, which Potency is on record?
**A.** Its Potency is inconclusive: 13 µM [inhibitor, partial curve].

**Q.** For `CCOc1ccc(C2c3c(oc4ccc(C)cc4c3=O)C(=O)N2Cc2ccc3c(c2)OCO3)cc1OC` (stereo not drawn), which “activity change, negative = growth inhibition” value is on record?
**A.** Its value is inactive: 21.3%.

**Q.** For `CCOc1c(Cl)cc(/C=C/C(=O)N(CC)CC(=O)NCc2cccs2)cc1OC`, which Potency is on record?
**A.** The Potency was inconclusive: 25.9 µM [inhibitor, single point].

**Q.** With `Clc1cccc(Nc2nc(N3CCOCC3)nc(N3CCOCC3)n2)c1` as the compound, how does the Potency read?
**A.** The Potency was inconclusive: 0.291 µM [inhibitor, full curve, poor fit].

**Q.** For `CCCCCOc1ccc(C(C)(O)C(CN2CCOCC2)c2ccccc2)cc1` (stereo not drawn), which Potency is on record?
**A.** Its Potency is inconclusive: 23.1 µM [inhibitor, single point].

**Q.** Which Potency does the source give for `CCOC(=O)N1CCN(C(=O)C[C@@H]2C[C@@]3(C(=O)OC)CCCCC=C3N(Cc3cccc4ccccc34)C2=O)CC1` here?
**A.** The Potency was inconclusive: 29.1 µM [inhibitor, single point].

**Q.** For `COc1cccc(C(=O)Nc2cc(C)c3c(=O)oc4ccccc4c3n2)c1`, which Potency is on record?
**A.** Its Potency is inconclusive: 23.1 µM [inhibitor, single point].

**Q.** For `O=Cc1ccccc1OCCCOc1cccc2cccnc12`, which Potency is on record?
**A.** Its Potency is active: 4.61 µM.

**Q.** For `CN(C(=O)COC(=O)c1cc(=O)[nH]c2ccccc12)c1ccccc1`, which “activity change, negative = growth inhibition” value is on record?
**A.** The value was inactive: -14.6%.

**Q.** For `COCCCn1c(=N)c(C(=O)NCc2ccc3c(c2)OCO3)cc2c(=O)n3ccccc3nc21`, which Potency is on record?
**A.** Its Potency is inconclusive: 29.1 µM [inhibitor, single point].

**Q.** For `CC(C)NC(=O)C1C(c2ccc(C(F)(F)F)cc2)=Nc2ccccc2N1C(=O)c1cccc2ccccc12` (stereo not drawn), which Potency is on record?
**A.** Its Potency is inconclusive: 29.1 µM [inhibitor, single point].

**Q.** Which Potency does the source give for `COc1ccc(CCC(=O)N2CCN(c3ccc(OC)cc3)CC2)cc1` here?
**A.** The Potency was inconclusive: 29.1 µM [inhibitor, single point].

**Q.** With `CCN1CCN(C(=O)c2cc3cc4ccc(OC)cc4nc3s2)CC1` as the compound, how does the “activity change, negative = growth inhibition” value read?
**A.** The value was inactive: 28.6%.

**Q.** With `Cc1ccc[n+](C(C)C(=O)Nc2ccc(C)c([N+](=O)[O-])c2)c1` (stereo not drawn) as the compound, how does the “activity change, negative = growth inhibition” value read?
**A.** The value was inactive: 2.74%.

**Q.** For `COc1ccccc1N1CCN(C(=O)c2cccc(S(=O)(=O)NCc3cccnc3)c2)CC1`, which Potency is on record?
**A.** The Potency was active: 16.4 µM.

**Q.** Which Potency does the source give for `COC(=O)c1cc(NC(=O)c2ccc(Cn3cc(Cl)cn3)o2)cc(C(=O)OC)c1` here?
**A.** Its Potency is inconclusive: 16.4 µM [inhibitor, single point].

**Q.** With `CC(=O)Nc1cc(-c2cccnc2)cn2c(-c3cccc(C(F)(F)F)c3)cnc12` as the compound, how does the Potency read?
**A.** The Potency was active: 18.4 µM.

**Q.** With `CCc1ccc(NC(=O)CN2C(=O)C3(SCC(=O)N3c3ccccc3)c3ccccc32)cc1` (stereo not drawn) as the compound, how does the Potency read?
**A.** The Potency was active: 20.6 µM.

**Q.** Which “activity change, negative = growth inhibition” value does the source give for `COc1cc(C(=O)NC(C)c2ccc3ccccc3c2)cc(Cl)c1O` (stereo not drawn) here?
**A.** The value was inactive: 9.61%.

**Q.** For `CCc1cc(-c2nnn(-c3cc(C(C)C)ccc3C)c2CC)ccc1-c1cn(CCc2c[nH]c3ccccc23)nn1`, which Potency is on record?
**A.** The Potency was active: 23.1 µM.

**Q.** For `CCOC(=O)c1c(-c2ccc(Cl)cc2)c(C#N)c(=O)n(N)c1N`, which Potency is on record?
**A.** The Potency was inconclusive: 0.58 µM [inhibitor, full curve, poor fit].

**Q.** For `Cc1ccc2c(c1)[C@H]1[C@H](CO2)[C@H](c2ccccc2)[C@]2(C)C(=O)N(Cc3ccc(Cl)cc3)CC(=O)N12`, which Potency is on record?
**A.** The Potency was inconclusive: 29.1 µM [inhibitor, single point].

**Q.** For `CC1(C)CC(=O)c2cc(-c3nc(-c4ccc(Cl)cc4)cs3)c(=O)n(-c3ccc(Cl)cc3)c2C1`, which “activity change, negative = growth inhibition” value is on record?
**A.** The value was inactive: -10.6%.

**Q.** Which Potency does the source give for `O=C(C[C@@H]1C/C=C/CC[C@@H](Cc2ccc(F)cc2)C(=O)OC[C@H](Cc2ccccc2)NC1=O)N[C@H](CO)Cc1ccccc1` here?
**A.** The Potency was active: 9.2 µM.

**Q.** With `COc1ccc(OC)c(-n2c(SCC(=O)Nc3cccc(S(N)(=O)=O)c3)nc3ccccc3c2=O)c1` as the compound, how does the Potency read?
**A.** The Potency was inconclusive: 18.4 µM [inhibitor, single point].

**Q.** Which Potency does the source give for `Cc1cccc2sc(NC(=O)Cn3c(C)csc3=O)nc12` here?
**A.** Its Potency is inconclusive: 23.1 µM [inhibitor, single point].

**Q.** With `COCCNC(=S)N/N=C(\C)c1ccc(C)c([N+](=O)[O-])c1` as the compound, how does the Potency read?
**A.** The Potency was active: 1.3 µM.

**Q.** With `Cc1cccc(N(C(=O)c2csnn2)C(C(=O)NCc2ccccc2)c2cccs2)c1` (stereo not drawn) as the compound, how does the “activity change, negative = growth inhibition” value read?
**A.** The value was inactive: -18.7%.

**Q.** With `CC(C)(C)c1ccc(S(=O)(=O)N2CCN(C(=O)C3=COCCO3)CC2)cc1` as the compound, how does the Potency read?
**A.** Its Potency is active: 29.1 µM.

**Q.** With `CCOC(=O)c1ccc2c(c1)NC(=O)C(N1CCN(c3ccc(OC)cc3)CC1)S2` (stereo not drawn) as the compound, how does the Potency read?
**A.** Its Potency is inconclusive: 18.4 µM [inhibitor, single point].

**Q.** Which Potency does the source give for `Oc1ccc(Br)cc1CNc1ccccn1` here?
**A.** Its Potency is inconclusive: 23.1 µM [inhibitor, single point].

**Q.** Which Potency does the source give for `CC(C)/C=C(/C(=O)c1ccc(Cl)cc1Cl)n1cncn1` here?
**A.** The Potency was inconclusive: 16.4 µM [inhibitor, single point].

**Q.** With `CCN1C(=O)[C@H]2[C@H]3CN=C(SCc4ccc(C)cc4)N3[C@@](Cc3ccccc3)(C(=O)OC)[C@H]2C1=O` as the compound, how does the Potency read?
**A.** The Potency was inconclusive: 29.1 µM [inhibitor, single point].

**Q.** Which Potency does the source give for `COc1ccc(C(=O)CSC(=S)N2CCCCC2)cc1` here?
**A.** Its Potency is inconclusive: 29.1 µM [inhibitor, single point].

**Q.** Which Potency does the source give for `Cc1occc1C(=O)Nc1cccc(-c2nc(CNC(=O)c3ccc(N4CCCCC4)cc3)c(C)o2)c1` here?
**A.** Its Potency is inconclusive: 23.1 µM [inhibitor, single point].

**Q.** Which Potency does the source give for `COc1ccc(NC(=O)Cn2nc(-c3ccncc3)ccc2=O)cc1Cl` here?
**A.** Its Potency is inconclusive: 29.1 µM [inhibitor, single point].

**Q.** With `COC(=O)C(Cc1ccccc1)NC(=O)c1cc(=O)[nH]c2ccccc12` (stereo not drawn) as the compound, how does the Potency read?
**A.** Its Potency is inconclusive: 5.17 µM [inhibitor, single point].

**Q.** For `COCc1cc(C)nc(SCC(=O)Nc2ccccc2N2CCOCC2)c1C#N`, which Potency is on record?
**A.** The Potency was inconclusive: 23.1 µM [inhibitor, single point].

**Q.** With `CC[C@]12c3[nH]c4cc(CCC(=O)N(C)C)ccc4c3CCN1C(=O)[C@@H](CC(=O)NCC13CC4CC(CC(C4)C1)C3)C[C@@H]2C(=O)N1CCN(C(=O)c2ccco2)CC1` as the compound, how does the Potency read?
**A.** The Potency was inconclusive: 18.4 µM [inhibitor, single point].

**Q.** With `Cc1ccc(NC(=O)/C(C#N)=C/c2ccc(C)o2)cc1` as the compound, how does the “activity change, negative = growth inhibition” value read?
**A.** Its value is inactive: -7.19%.

**Q.** Which activity change, negative = growth inhibition does the source give for `OCCC1CN(Cc2ccc(-c3ccco3)cc2)CCN1Cc1ccsc1` (stereo not drawn) here?
**A.** Its activity change, negative = growth inhibition is inconclusive: -35.4% [inhibitor].

**Q.** With `O=C(Cc1cccs1)N/N=C/C=C/c1ccco1` as the compound, how does the Potency read?
**A.** Its Potency is inconclusive: 16.4 µM [inhibitor, single point].

**Q.** With `CSc1cccc(NC(=O)c2nnn(CC(=O)Nc3cc(C)cc(C)c3)c2N)c1` as the compound, how does the Potency read?
**A.** Its Potency is inconclusive: 29.1 µM [inhibitor, single point].

**Q.** For `CC(=O)N1c2ccc(S(=O)(=O)N3CCC(C(=O)Nc4cccc(C)c4)CC3)cc2CC1C` (stereo not drawn), which Potency is on record?
**A.** Its Potency is active: 16.4 µM.
